{
  "source": "PubChem BioAssay AID624296",
  "about": "(National Center for Advancing Translational Sciences (NCATS), 2012)",
  "note": "“And” between values parts separate entries of the source, which are not always exact repeats. Equal entries are not always repeated. Hit rate of the full screen: of about 350,000 compounds, about 9,900 (2.8%) were called active. Inconclusive means that the source gave no clear call. Such entries were picked first, then a sample of the others. Calls come from the whole dose curve; as a rule, active = well fitted activation curve with a large enough effect; inconclusive = small, poorly fitted or top-dose-only effect; inactive = no such curve, though single readings can be large or run the other way. Potencies of inconclusive entries are doubtful fits and often do not repeat. Potency is the fitted concentration of half-maximal effect; tags give direction and shape of the fitted curve.",
  "data": [
    {"assay": "A quantitative high throughput screen for small molecules that induce DNA re-replication in MCF 10a normal breast cells; note: nearly all actives have a fitted effect of over 50% in size; for activity, positive = re-replication: % of control where 0% means no effect.", "details": "MCF 10A DNA re-replication, Hoechst nuclear intensity, 48 h; activity, positive = re-replication: at 46.1 µM (top of the series)", "values": [
      {"smiles": "CNc1nc(-c2cccs2)cc(C(F)(F)F)c1C#N", "Potency": "active: 18.4 µM"},
      {"smiles": "Cc1nc2ccccc2c(=O)n1/N=C/c1ccc(C(C)C)cc1", "Potency": "inconclusive: 29.1 µM [activator, single point]"},
      {"smiles": "CCOc1cccc(CNCCO)c1OCc1ccc(Cl)cc1Cl", "Potency": "inconclusive: 16.4 µM [activator, partial curve, poor fit]"},
      {"smiles": "CCCN1C(=O)/C(=C/c2ccc(OCc3ccc(C(=O)O)cc3)c(OC)c2)NC1=S", "Potency": "inconclusive: 23.1 µM [activator, single point]"},
      {"smiles": "COCCNC(=O)c1sc2ncn(CC(=O)N3CCCCC3)c(=O)c2c1C", "Potency": "inconclusive: 20.6 µM [activator, single point]"},
      {"smiles": "CCC(C)NCCCOc1ccc(Cl)cc1C(C)(C)C", "note": "(centres undefined)", "Potency": "inconclusive: 9.2 µM [activator, single point]"},
      {"smiles": "O=c1c2c3c(sc2nc(NCCO)n1CCc1ccccc1)CCCCC3", "Potency": "active: 4.61 µM"},
      {"smiles": "CCOC(=O)c1ccc(COc2ccc(C(C)C)cc2)o1", "Potency": "inconclusive: 1.16 µM [activator, full curve, poor fit]"},
      {"smiles": "OCCC1CN(CCCc2ccccc2)CCN1Cc1ccccc1", "note": "(centres undefined)", "Potency": "inactive"},
      {"smiles": "O=C(NCC1CCCO1)C(c1cccs1)N(Cc1cccs1)C(=O)c1ccc(-c2ccccc2)[nH]1", "note": "(centres undefined)", "Potency": "inconclusive: 32.6 µM [activator, partial curve, poor fit]"},
      {"smiles": "CCc1c(C(=O)NCCc2ccc(OC)c(OC)c2)[nH]c(C)c1C(C)=O", "Potency": "inactive"},
      {"smiles": "CCCCCC(=O)N[C@@H](c1ccccc1)[C@@H](O)C(=O)O[C@H]1C[C@@]2(O)[C@@H](OC(=O)c3ccccc3)C3[C@](C)(C(=O)[C@H](OC(C)=O)C(=C1C)C2(C)C)[C@@H](O)C[C@H]1OC[C@@]31OC(C)=O", "note": "(some centres undefined)", "activity, positive = re-replication": "inconclusive: 97.2% [activator]"},
      {"smiles": "CN(Cc1cccs1)C(=O)Cn1cnc2ccccc2c1=O", "Potency": "inactive"},
      {"smiles": "COc1ccc(/C=C/c2nnc(NC(=O)C(C)(C)C)s2)cc1", "Potency": "inconclusive: 29.1 µM [activator, single point]"},
      {"smiles": "CCOC(=O)C1=C(CC)Nc2ccccc2N=C1NC(=O)c1ccc(OC)c(S(=O)(=O)N2CCCCC2C)c1", "note": "(centres undefined)", "Potency": "active: 3.66 µM"},
      {"smiles": "O=C(Cc1ccccc1Cl)NNC(=O)Nc1ccccc1", "Potency": "inactive"},
      {"smiles": "C[C@]12CC[C@@H]3c4ccc(O)cc4CC[C@H]3[C@@H]1CC[C@@H]2O", "Potency": "inconclusive: 26.6 µM [activator, partial curve, poor fit] and inconclusive: 32.6 µM [activator, partial curve, poor fit]"},
      {"smiles": "Fc1ccc(C2c3cccn3CCN2C(=S)Nc2cccc(F)c2)cc1", "note": "(centres undefined)", "Potency": "inactive"},
      {"smiles": "O=C(CN1C(=O)NC2(CCCCCC2)C1=O)Nc1ccc2c(c1)CCC2", "Potency": "inactive"},
      {"smiles": "Cc1ccc(Nc2nc(N)c([N+](=O)[O-])c(N3CCOCC3)n2)cc1", "Potency": "inconclusive: 0.0046 µM [activator, full curve, poor fit]"},
      {"smiles": "Cc1ccc(NC(=O)c2cc(-n3cnnc3)ccc2Cl)c(C)c1", "Potency": "inconclusive: 0.0651 µM [activator, full curve, poor fit]"},
      {"smiles": "CCN(CC)S(=O)(=O)c1ccc(NCC2COc3ccccc3O2)c([N+](=O)[O-])c1", "note": "(centres undefined)", "Potency": "inconclusive: 8.2 µM [activator, partial curve]"},
      {"smiles": "CC(C)c1ccc(NC(=S)NCc2cccs2)cc1", "Potency": "inconclusive: 23.1 µM [activator, single point]"},
      {"smiles": "O=C(Nc1ccc(Oc2cccnc2)cc1)C1CCCCN1Cc1ccc(CO)o1", "note": "(centres undefined)", "Potency": "inconclusive: 18.4 µM [activator, partial curve, poor fit]"},
      {"smiles": "CCOc1ccc(NC(=O)c2csc3c2CCCC3)cc1", "Potency": "inconclusive: 32.6 µM [activator, single point]"},
      {"smiles": "COc1ccc(OCC(O)CN2C(=O)c3ccccc3S2(=O)=O)cc1", "note": "(centres undefined)", "Potency": "inconclusive: 23.1 µM [activator, single point]"},
      {"smiles": "COc1cccc(/C=N/NC(=S)NCCc2ccccc2)c1", "Potency": "inconclusive: 16.4 µM [activator, single point]"},
      {"smiles": "CC(=O)c1cccc(NCC(=O)Nc2cc(S(=O)(=O)N3CCCCC3)ccc2C)c1", "Potency": "inconclusive: 25.9 µM [activator, partial curve, poor fit]"},
      {"smiles": "Cc1ccc2nsnc2c1NC(=O)c1ccc([N+](=O)[O-])o1", "Potency": "active: 20.6 µM"},
      {"smiles": "Cc1ccc(C2(c3ccc(C)cc3)NC(=O)N(Cc3c(C)noc3C)C2=O)cc1", "Potency": "inconclusive: 20.6 µM [activator, single point]"},
      {"smiles": "Clc1ccc(CN2CCCCCC2)cc1", "Potency": "inactive"},
      {"smiles": "O=C(COc1coc(CN2CCc3ccccc3C2)cc1=O)Nc1cccc([N+](=O)[O-])c1", "Potency": "inconclusive: 29.1 µM [activator, partial curve, poor fit]"},
      {"smiles": "COc1ccc(NS(=O)(=O)NC(=O)c2c[nH]c3ccccc23)cc1", "Potency": "inactive"},
      {"smiles": "O=C(Nc1nnc2n1CCS2)c1ccc(Br)o1", "Potency": "inactive"},
      {"smiles": "CS(=O)(=O)c1ccc2nc(NC(=O)c3ccco3)sc2c1", "Potency": "inactive"},
      {"smiles": "COc1cccc(OC)c1C(=O)OCC(=O)N(c1ccccc1)C1CCCCC1", "Potency": "inconclusive: 0.231 µM [activator, full curve, poor fit]"},
      {"smiles": "COc1ccccc1C(=O)NCCN1CCN(c2ccccc2)CC1", "Potency": "inconclusive: 0.0259 µM [activator, full curve, poor fit]"},
      {"smiles": "CCOC(=O)C1(Cc2ccccc2C(F)(F)F)CCN(Cc2ccc(COC)o2)CC1", "Potency": "inconclusive: 20.6 µM [activator, partial curve, poor fit]"},
      {"smiles": "CCN(CCNCC(O)COc1ccccc1C(C)C)c1cccc(C)c1", "note": "(centres undefined)", "Potency": "inconclusive: 18.4 µM [activator, single point]"},
      {"smiles": "COc1cc(OC)cc(-c2c(-c3cccs3)c3cc(Br)ccc3n2C)c1", "Potency": "inconclusive: 20.6 µM [activator, single point]"},
      {"smiles": "Cc1cc(SCC(=O)OCC(=O)NCc2ccc3c(c2)OCO3)c(C)cc1Br", "Potency": "inconclusive: 29.1 µM [activator, partial curve, poor fit]"},
      {"smiles": "COc1ccc(-c2cc(C(=O)N3CCN(c4ccccc4)CC3)c3ccccc3n2)cc1", "Potency": "active: 13 µM"},
      {"smiles": "COc1ccc2oc(C(=O)NCc3cc(OC)c(OC)cc3OC)c(C)c2c1", "Potency": "inconclusive: 20.6 µM [activator, partial curve, poor fit]"},
      {"smiles": "CCOC(=O)c1sc2ncn(/N=C/c3ccc(O)c(OC)c3)c(=O)c2c1C", "Potency": "inconclusive: 9.2 µM [activator, partial curve]"},
      {"smiles": "Oc1cccc(/C=N/N2CCN(C3c4ccccc4-c4ccccc43)CC2)c1", "Potency": "inconclusive: 29.1 µM [activator, single point]"},
      {"smiles": "Cc1ccsc1CN(C)CC(=O)Nc1ccccc1C(=O)NC1CC1", "Potency": "inactive"},
      {"smiles": "O=C(c1ccccc1F)N1CCN(c2ccc([N+](=O)[O-])c3cccnc23)CC1", "Potency": "inactive"},
      {"smiles": "O=C(Cc1coc2cc(O)ccc12)NNC(=O)c1cccs1", "Potency": "inconclusive: 0.164 µM [activator, full curve, poor fit]"},
      {"smiles": "CCOC(=O)CN(C)C(=O)C1CCCN1C(=O)OC(C)(C)C", "note": "(centres undefined)", "Potency": "inactive"},
      {"smiles": "CCc1nc(Nc2cccc(O)c2)c2oc3ccccc3c2n1", "Potency": "inconclusive: 18.4 µM [activator, partial curve, poor fit]"},
      {"smiles": "COc1ccc(C2N(C(=O)c3ccccc3)CCN2C(=O)c2ccccc2)cc1", "Potency": "inactive"},
      {"smiles": "O=C(NNc1c(Cl)cncc1Cl)c1sccc1Cl", "Potency": "inactive"},
      {"smiles": "CCN(C(=O)CO/N=C/c1ccc(OC)cc1OC)c1c(N)n(Cc2ccccc2)c(=O)[nH]c1=O", "Potency": "inconclusive: 29.1 µM [activator, single point]"},
      {"smiles": "C=C[C@@H]1c2ccccc2N(S(=O)(=O)c2ccc(C)cc2)[C@H](c2ccccc2)C1(C#N)C#N", "Potency": "inactive"},
      {"smiles": "Cc1cc(C(C)(C)C)oc1C(=O)N(CC(=O)NC1CCCC1)Cc1ccccc1", "Potency": "inconclusive: 6.51 µM [activator, single point]"},
      {"smiles": "O=C(Cn1cnc2c(cnn2-c2ccc(F)cc2)c1=O)NCc1ccco1", "Potency": "active: 14.6 µM"},
      {"smiles": "N#Cc1c(-c2ccccc2)nc(SCC(=O)N(c2ccccc2)c2ccccc2)[nH]c1=O", "Potency": "inactive"},
      {"smiles": "CCOC(=O)c1nc(Nc2ccccc2C)c2ccccc2n1", "Potency": "inactive"},
      {"smiles": "Nc1nc(-c2ccccc2)c(-c2ccccc2)n1N", "Potency": "inconclusive: 3.26 µM [activator, single point]"},
      {"smiles": "Cc1cc(NC(=O)CCc2ccc(-c3ccccc3)o2)no1", "Potency": "inconclusive: 32.6 µM [activator, partial curve, poor fit]"},
      {"smiles": "Oc1ccccc1Oc1c(F)c(F)nc(N2CCCC2)c1F", "Potency": "inconclusive: 23.1 µM [activator, single point]"},
      {"smiles": "O=C(COc1ccc(F)cc1)Nc1nccs1", "Potency": "inactive"},
      {"smiles": "Cc1cccc(NC(=O)CNC(=O)COC(=O)C2CC2C)c1C", "note": "(centres undefined)", "Potency": "inactive"},
      {"smiles": "CCOc1ccc(CN2CCN(CC(O)Cn3c4ccccc4c4ccccc43)CC2)cc1", "note": "(centres undefined)", "Potency": "inactive and inconclusive: 29.1 µM [activator, single point]"},
      {"smiles": "O=C(CCn1cnc(-c2ccccc2)c1-c1ccccc1)N/N=C/c1ccccc1O", "Potency": "active: 4.61 µM"},
      {"smiles": "O=C(O)C1C2C=CC(C2)C1C(=O)NCc1cccc(Cl)c1", "note": "(centres undefined)", "Potency": "inconclusive: 23.1 µM [activator, partial curve, poor fit]"},
      {"smiles": "COc1ccc(C)cc1NC(=O)CN1C(=O)COc2ccc(S(=O)(=O)N3CCCCCC3)cc21", "Potency": "inactive"},
      {"smiles": "CCOC(=O)c1c(C)[nH]c(C)c1C(=O)COC(=O)c1sccc1C", "Potency": "inactive"},
      {"smiles": "CCC(=O)c1ccc(OC(=O)/C=C/c2cc(OC)c(OC)c(OC)c2)cc1", "Potency": "inconclusive: 29.1 µM [activator, single point]"}
    ]}
  ]
}
